Results as given in patent US11178870B2 (priority 2017, dated 2021).

Experiments:
Magnaporthe grisea = assay type: in vivo; settings: Blast on rice
Phytophthora infestans = assay type: in vivo; settings: Late blight on tomato

Structure (SMILES)	Test A control value (Magnaporthe grisea)	Test F control value (Phytophthora infestans)
CCn1c(-c2c(F)cccc2F)c(-c2ccsc2Br)cc(Br)c1=O [Compound 54]	H (H shows the control value more than 50%)	L (L shows the control value of 50% or less)
CCn1c(-c2c(F)cccc2F)c(-c2cccnc2Cl)cc(Br)c1=O [Compound 55]	H (H shows the control value more than 50%)	L (L shows the control value of 50% or less)
O=c1ccc(-c2cccnc2Cl)c(-c2c(F)cccc2F)n1CC(F)F [Compound 56]	H (H shows the control value more than 50%)	L (L shows the control value of 50% or less)
O=c1c(Cl)cc(-c2cccnc2Cl)c(-c2c(F)cccc2F)n1CC(F)F [Compound 57]	H (H shows the control value more than 50%)	L (L shows the control value of 50% or less)
O=c1ccc(-c2cccnc2Cl)c(-c2c(F)cccc2F)n1CC(F)(F)F [Compound 58]	H (H shows the control value more than 50%)	L (L shows the control value of 50% or less)
O=c1c(Br)cc(-c2cccnc2Cl)c(-c2c(F)cccc2F)n1CC(F)F [Compound 59]	H (H shows the control value more than 50%)	L (L shows the control value of 50% or less)
O=c1c(Cl)cc(-c2cccnc2Cl)c(-c2c(F)cccc2F)n1CC(F)(F)F [Compound 60]	L (L shows the control value of 50% or less)	L (L shows the control value of 50% or less)
CCn1c(-c2c(F)cc(F)cc2F)c(-c2cccnc2Cl)ccc1=O [Compound 61]	H (H shows the control value more than 50%)	L (L shows the control value of 50% or less)
CCn1c(-c2c(F)cc(F)cc2F)c(-c2cccnc2Cl)cc(Cl)c1=O [Compound 62]	H (H shows the control value more than 50%)	L (L shows the control value of 50% or less)
CCn1c(-c2c(F)cc(F)cc2F)c(-c2cccnc2Cl)cc(Br)c1=O [Compound 63]	H (H shows the control value more than 50%)	L (L shows the control value of 50% or less)
O=c1c(Br)cc(-c2cccnc2Cl)c(-c2c(F)cccc2F)n1CC(F)(F)F [Compound 64]	H (H shows the control value more than 50%)	L (L shows the control value of 50% or less)
CCn1c(-c2c(F)cccc2F)c(-c2cccnc2Cl)cc(I)c1=O [Compound 65]	H (H shows the control value more than 50%)	L (L shows the control value of 50% or less)
CCn1c(-c2c(F)cccc2F)c(-c2cccnc2Cl)cc(C)c1=O [Compound 66]	H (H shows the control value more than 50%)	L (L shows the control value of 50% or less)
O=c1ccc(-c2cccnc2Cl)c(-c2c(F)cc(F)cc2F)n1CC(F)F [Compound 67]	H (H shows the control value more than 50%)	L (L shows the control value of 50% or less)
O=c1c(Cl)cc(-c2cccnc2Cl)c(-c2c(F)cc(F)cc2F)n1CC(F)F [Compound 68]	H (H shows the control value more than 50%)	L (L shows the control value of 50% or less)
O=c1c(Br)cc(-c2cccnc2Cl)c(-c2c(F)cc(F)cc2F)n1CC(F)F [Compound 69]	H (H shows the control value more than 50%)	L (L shows the control value of 50% or less)
CCn1c(-c2c(F)cc(OC)cc2F)c(-n2cc(Cl)cn2)cc(Br)c1=O [Compound 73]	H (H shows the control value more than 50%)	L (L shows the control value of 50% or less)
CCn1c(-c2c(F)cccc2F)c(-c2ocnc2I)cc(Cl)c1=O [Compound 74]	H (H shows the control value more than 50%)	L (L shows the control value of 50% or less)
CCn1c(-c2c(F)cccc2F)c(-c2oc(I)nc2I)cc(Cl)c1=O [Compound 75]	H (H shows the control value more than 50%)	L (L shows the control value of 50% or less)
CCn1c(-c2c(F)cc(F)cc2F)c(-n2nc(C)c(Br)c2C)ccc1=O [Compound 76]	H (H shows the control value more than 50%)	L (L shows the control value of 50% or less)
CCn1c(-c2c(F)cc(F)cc2F)c(-n2cc(Br)cn2)cc(Br)c1=O [Compound 77]	H (H shows the control value more than 50%)	L (L shows the control value of 50% or less)
CCn1c(-c2c(F)cc(OC)cc2F)c(-n2cc(Br)cn2)cc(Br)c1=O [Compound 78]	H (H shows the control value more than 50%)	L (L shows the control value of 50% or less)
CCn1c(-c2c(F)cc(OC)cc2F)c(-c2cccnc2Cl)ccc1=O [Compound 79]	H (H shows the control value more than 50%)	L (L shows the control value of 50% or less)

Structure (SMILES)	Test A control value (Magnaporthe grisea)	Test F control value (Phytophthora infestans)
CCn1c(-c2c(F)cc(OC)cc2F)c(-c2cccnc2Cl)cc(Cl)c1=O [Compound 80]	H (H shows the control value more than 50%)	L (L shows the control value of 50% or less)
CCn1c(-c2c(F)cc(OC)cc2F)c(-c2cccnc2Cl)cc(Br)c1=O [Compound 81]	H (H shows the control value more than 50%)	L (L shows the control value of 50% or less)
CCn1c(-c2c(F)cc(F)cc2F)c(-n2ncc(C)c2Cl)ccc1=O [Compound 82]	H (H shows the control value more than 50%)	L (L shows the control value of 50% or less)
CCn1c(-c2c(F)cc(F)cc2F)c(-n2ncc(C)c2Cl)cc(Cl)c1=O [Compound 83]	H (H shows the control value more than 50%)	L (L shows the control value of 50% or less)
CCn1c(-c2c(F)cc(F)cc2F)c(-n2cccn2)cc(Cl)c1=O [Compound 84]	H (H shows the control value more than 50%)	L (L shows the control value of 50% or less)
CCn1c(-c2c(F)cc(F)cc2F)c(-n2cc(C)cn2)cc(Cl)c1=O [Compound 85]	H (H shows the control value more than 50%)	L (L shows the control value of 50% or less)
CCn1c(-c2c(F)cc(F)cc2F)c(-n2cc(C)cn2)cc(C)c1=O [Compound 86]	H (H shows the control value more than 50%)	L (L shows the control value of 50% or less)
CCn1c(-c2c(F)cccc2F)c(-c2cnc(Cl)o2)cc(Cl)c1=O [Compound 87]	L (L shows the control value of 50% or less)	L (L shows the control value of 50% or less)
CCn1c(-c2c(F)cc(F)cc2F)c(-c2cnco2)cc(Br)c1=O [Compound 89]	H (H shows the control value more than 50%)	L (L shows the control value of 50% or less)
CCn1c(-c2c(F)cc(OC)cc2F)c(-c2cnco2)cc(Br)c1=O [Compound 90]	L (L shows the control value of 50% or less)	L (L shows the control value of 50% or less)
CCn1c(-c2c(F)cccc2F)c(-c2ocnc2OC)cc(Cl)c1=O [Compound 91]	L (L shows the control value of 50% or less)	L (L shows the control value of 50% or less)
CCn1c(-c2c(F)cccc2F)c(-c2cnc(I)o2)cc(Cl)c1=O [Compound 92]	L (L shows the control value of 50% or less)	L (L shows the control value of 50% or less)
CCn1c(-c2c(F)cc(F)cc2F)c(-n2nc(C)cc2C)ccc1=O [Compound 93]	L (L shows the control value of 50% or less)	L (L shows the control value of 50% or less)
CCn1c(-c2c(F)cc(OC)cc2F)c(-n2nc(C)cc2C)ccc1=O [Compound 94]	H (H shows the control value more than 50%)	L (L shows the control value of 50% or less)
CCn1c(-c2c(F)cc(F)cc2F)c(-n2nc(C)c(Cl)c2C)ccc1=O [Compound 95]	H (H shows the control value more than 50%)	L (L shows the control value of 50% or less)
CCn1c(-c2c(F)cc(F)cc2F)c(-c2oc(Br)nc2Br)cc(Br)c1=O [Compound 96]	H (H shows the control value more than 50%)	L (L shows the control value of 50% or less)
CCn1c(-c2c(F)cc(F)cc2F)c(-c2ocnc2Br)cc(Br)c1=O [Compound 97]	H (H shows the control value more than 50%)	L (L shows the control value of 50% or less)
Cn1c(-c2c(F)cc(F)cc2F)c(-c2cccnc2Cl)ccc1=O [Compound 98]	H (H shows the control value more than 50%)	L (L shows the control value of 50% or less)
Cn1c(-c2c(F)cccc2F)c(-c2cccnc2Cl)ccc1=O [Compound 99]	H (H shows the control value more than 50%)	L (L shows the control value of 50% or less)
Cn1c(-c2c(F)cc(F)cc2F)c(-c2cccnc2Cl)cc(Cl)c1=O [Compound 100]	H (H shows the control value more than 50%)	L (L shows the control value of 50% or less)
CCn1c(-c2c(F)cc(F)cc2F)c(-n2cc(C)cn2)cc(Br)c1=O [Compound 101]	H (H shows the control value more than 50%)	L (L shows the control value of 50% or less)
CCn1c(-c2c(F)cc(OC)cc2F)c(-c2oc(Br)nc2Br)cc(Br)c1=O [Compound 102]	H (H shows the control value more than 50%)	L (L shows the control value of 50% or less)
